Some of the results follow.
System: HSkMC (human skeletal muscle cells)
Test: cytotoxicity call (relative viability < 0.9)
Conditions: 10 µM

SMILES | cytotoxicity call
COc1ccc(S(=O)(=O)N(C)C[C@@H]2OCCCC[C@@H](C)Oc3ccc(NC(=O)c4ccccc4)cc3C(=O)N([C@@H](C)CO)C[C@@H]2C)cc1 | inactive
C[C@H](CO)N1C[C@H](C)[C@H](CN(C)Cc2ccc(C(F)(F)F)cc2)Oc2ccc(NC(=O)Cc3cn(C)c4ccccc34)cc2CC1=O | inactive
CC(C)NC(=O)Nc1ccc2c(c1)C(=O)N([C@H](C)CO)C[C@H](C)[C@H](CN(C)CC1CCCCC1)OCCCC[C@H](C)O2 | inactive
C[C@@H]1CN([C@@H](C)CO)C(=O)c2cccc(NC(=O)NC3CCCCC3)c2O[C@@H]1CN(C)C(=O)Nc1cccc2ccccc12 | inactive
CCCNCC(O)COc1ccccc1C(=O)CCc1ccccc1.Cl (centres undefined) | inactive
COc1cccc(NC(=O)N[C@@H]2C=C[C@@H](CC(=O)N3CCOCC3)O[C@H]2CO)c1 | inactive
CCS(=O)(=O)Nc1ccc2c(c1)C(=O)N(C)C[C@@H](OC)[C@@H](C)CN(Cc1ccccn1)[C@H](C)CO2 | inactive
Cc1noc(C)c1S(=O)(=O)Nc1ccc2c(c1)C(=O)N([C@@H](C)CO)C[C@@H](C)[C@H](CN(C)S(C)(=O)=O)O2 | inactive
COc1ccc(CN(C)C[C@@H]2OCCCC[C@H](C)Oc3ccc(NS(=O)(=O)c4ccc(Cl)cc4)cc3C(=O)N([C@H](C)CO)C[C@@H]2C)cc1 | inactive
O=C1O[C@@H](c2ccccc2)[C@@H](c2ccccc2)N2[C@@H](c3ccccc3OCCO)[C@]3(C(=O)Nc4ccc(C#CC5(O)CCCCCC5)cc43)[C@@H](C(=O)N3CCCCCCC3)[C@H]12 | inactive
C[C@@H]1CN([C@H](C)CO)S(=O)(=O)c2ccc(C#CCN(C)C)cc2O[C@H]1CN(C)Cc1ccccc1F | inactive
C[C@@H]1CCCCO[C@H](CN(C)Cc2ccc(C(=O)O)cc2)[C@@H](C)CN([C@@H](C)CO)C(=O)c2cc(NC(=O)Nc3ccc4c(c3)OCO4)ccc2O1 | inactive
C[C@@H]1CN([C@H](C)CO)C(=O)Cc2cc(NC(=O)Nc3ccc(C(F)(F)F)cc3)ccc2O[C@@H]1CN(C)C(=O)Nc1cccc2ccccc12 | inactive
CO[C@H]1CN(C)C(=O)c2ccc(NC(=O)Nc3ccc(Cl)cc3)cc2OC[C@@H](C)N(C(=O)Nc2c(C)noc2C)C[C@H]1C | inactive
C[C@H]1CCCCO[C@H](CN(C)CC2CCCCC2)[C@@H](C)CN([C@@H](C)CO)C(=O)c2cc(NC(=O)c3ccccc3)ccc2O1 | inactive
C[C@@H]1CCCCO[C@@H](CN(C)C(=O)CCCN(C)C)[C@@H](C)CN([C@@H](C)CO)C(=O)c2cc(NC(=O)Nc3ccc(C(F)(F)F)cc3)ccc2O1 | inactive
C[C@H](CO)N1C[C@H](C)[C@@H](CN(C)S(=O)(=O)c2ccc(Cl)cc2)OCc2cnnn2CCCC1=O | inactive
CN1C(=O)c2cc(NC(=O)C3CCC3)ccc2OC[C@H]2O[C@@H](CC(=O)NCCc3ccncc3)CC[C@@H]21 | inactive
CC(C)C#Cc1cnc2c(c1)C(=O)N([C@@H](C)CO)C[C@@H](C)[C@@H](CN(C)S(=O)(=O)c1cn(C)cn1)O2 | inactive
C[C@H](CO)N1C[C@H](C)[C@@H](CN(C)C(=O)Nc2cccc(Cl)c2Cl)OCc2ccccc2-c2c(n(C)c3ccccc23)C1=O | active

SMILES | cytotoxicity call
C[C@H]1CCCCO[C@@H](CN(C)Cc2ccc(C(=O)O)cc2)[C@@H](C)CN([C@@H](C)CO)C(=O)c2cc(NC(=O)Nc3ccccc3)ccc2O1 | inactive
Cc1noc(C)c1S(=O)(=O)Nc1cccc2c1O[C@@H](CN(C)C(=O)Nc1ccccc1)[C@@H](C)CN([C@H](C)CO)C2=O | inactive
CC(C)NC(=O)Nc1cccc2c1O[C@@H](CN(C)Cc1ccc(-c3ccccc3)cc1)[C@@H](C)CN([C@H](C)CO)C2=O | inactive
COc1ccc(NC(=O)N(C)C[C@@H]2Oc3ncc(C#CC(C)C)cc3C(=O)N([C@@H](C)CO)C[C@@H]2C)cc1 | inactive
C[C@@H]1CN([C@H](C)CO)S(=O)(=O)c2ccc(C#CCN(C)C)cc2O[C@@H]1CN(C)Cc1ccncc1 | inactive
CC(C)(O/N=C(\C(=O)N[C@@H]1C(=O)N2C(C(=O)O)=C(C[n+]3ccccc3)CS[C@H]12)c1csc(N)n1)C(=O)O | inactive
CC(=O)Nc1nnc(S(N)(=O)=O)s1 | inactive
CN(C)CC#Cc1ccc([C@@H]2[C@H](CO)N3CCCCN(C(=O)CN(C)C)C[C@@H]23)cc1 | inactive
Nc1ccncc1N | inactive
C[C@@H]1CN([C@H](C)CO)C(=O)c2c(c3ccccc3n2C)-c2ccccc2CO[C@@H]1CN(C)C(=O)NC1CCCCC1 | inactive
C[C@H]1CN([C@@H](C)CO)C(=O)c2cc(NC(=O)CCN3CCOCC3)ccc2O[C@H]1CN(C)Cc1ccccc1 | inactive
C[C@@H]1CN([C@H](C)CO)C(=O)Cc2cc(NC(=O)Cc3ccccc3)ccc2O[C@H]1CN(C)S(=O)(=O)c1cn(C)cn1 | inactive
Brc1c(NC2=NCCN2)ccc2nccnc12 | inactive
CC(C)(C)C(=O)CC1(O)CCCCC1 | inactive
O=C(O)c1cccc(-c2ccco2)c1 | inactive
CCCN(C)C[C@@H]1OCCCC[C@@H](C)Oc2ccc(NC(=O)Cc3ccccc3)cc2C(=O)N([C@H](C)CO)C[C@@H]1C | inactive
C[C@H](CO)N1C[C@H](C)[C@H](CN(C)S(=O)(=O)c2cccc(C#N)c2)OCc2cnnn2CCCC1=O | inactive
COc1ccc(NC(=O)N(C)C[C@@H]2Oc3ccc(NS(=O)(=O)c4cn(C)cn4)cc3CC(=O)N([C@@H](C)CO)C[C@H]2C)cc1 | inactive
CC(C)CC#Cc1ccc2c(c1)O[C@@H](CN(C)C(=O)c1cccnc1)[C@@H](C)CN([C@@H](C)CO)S2(=O)=O | inactive

Source: the antibiotic and cytotoxicity screens of Wong et al. (2023)
